The other results are listed elsewhere or left out. The full chains were built here from the parent and the listed change. Values near 0.05 are background.
B1: TEV protease; numbered along this chain (parent)
chain: MGESLFKGPRDYNPISSSICHLTNESDGHTTSLYGIGFGPFIITNKHLFRRNNGTLVVQSLHGVFKVKDTTTLQQHLVDGRDMIIIRMPKDFPPFPQKLKFREPQREERICLVTTNFQTKSMSSMVSDTSCTFPSGDGIFWKHWIQTKDGQCGSPLVSTRDGFIVGIHSASNFTNTNNYFTSVPKNFMELLTNQEAQQWVSGWRLNADSVLWGGHKVFMVKPEEPFQPVKEATQL

Variants of: B1
Assay: raw area under fraction-flipped curve 0-4 h after induction (AUC4h, not background-subtracted), DNA-recorder readout of cleavage of the substrate (dimensionless); higher = more cleavage of the substrate by the protease variant
Conditions: temperature: 34 °C; time window: 0-4 h after rhamnose induction
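Also: Bxb1 expression induced with 0.2% (w/v) L-rhamnose at OD600 near 0.5, cultures sampled hourly, flipped fraction per protease–substrate barcode pair counted by paired-end Illumina sequencing.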

Variant	area with substrate EALYFQS	area with substrate ECLYFQS	area with substrate EDLYFQS	area with substrate EFLYFQS	area with substrate EGLYFQS	area with substrate EHLYFQS	area with substrate EILYFQS	area with substrate EKLYFQS	area with substrate ELLYFQS	area with substrate EMLYFQS	area with substrate EPLYFQS	area with substrate EQLYFQS	area with substrate ERLYFQS	area with substrate ESLYFQS	area with substrate ETLYFQS	area with substrate EVLYFQS	area with substrate EWLYFQS	area with substrate EYLYFQS	area with substrate EELYFQS
MGESLFKGPRDYNPISSSICHLTNESDGHTTSLYGIGFGPFIITNKHLFRRNNGTLVVQSLHGVFKVKDTTTLQQHLVDGRDMIIIRMPKDFPPFPQKLKFREPQREERICLVTTNFQTKSMSSMVSDTSCTFPSGDGIFWKHWIQTKDGQCGSPLVSTRDGFIVGIHSASNFTNTNNYFTSVPKNFMELKTNQEAQQWVSGWRLNADSVLWGGHKVFMVKPEEPFQPVKEATQL [L191K]	0.0668	0.0559	0.113	0.0324	0.0538	0.069	0.0329	0.0497	0.0615	0.0608	0.0556	0.0533	0.058	0.0659	0.0512	0.0575	0.0591	0.0444	
MGESLFKGPRDYNPISSSICHLTNESDGHTTSLYGIGFGPFIITNKHLFRRNNGTLVVQSLHGVFKVKDTTTLQQHLVDGRDMIIIRMPKDFPPFPQKLKFREPQREERICLVTTNFQTKSMSSMVSDTSCTFPSGDGIFWKHWIQTKDGQCGSPLVSTRDGFIVGIHSASNFTNTNNYFTSVPKNFMELLTNQEAQQWVSGWRLNADSVLWGGHKVFMVKPEEPNQPVKEATQL [F226N]	0.118	0.127	0.14	0.129	0.0896		0.1	0.102	0.103	0.116	0.133	0.13		0.13		0.0991	0.0962	0.0208	0.141
MGESLFKGPRDYNPISSSICHLTNESDGHTTSLYGIGFGPFIITNKHLFRRNNGTLVVQSLHGVFKVKDTTTLQQHLVDGRDMIIIRMPKDFPPFPQKLKFREPQREERICLVTTNFQTKSMSSMVSDTSCTFPSGDGIFWKHWIQTKDGQCGSPLVSTRDGFIVGIHSASNFTNTNNYFTSVPKNMMELLTNQEAQQWVSGWRLNADSVLWGGHKVFMVKPEEPFQPVKEATQL [F187M]	0.113	0.106	0.138	0.117		0.102	0.0874	0.0871	0.0802	0.124	0.109	0.099	0.0618	0.102			0.108	0.108	
MGESLFKGPRDYNPISSSICHLTNESDGHTTSLYGIGFGPFIITNKHLFRRNNGTLVVQSLHGVFKVKDTTTLQQHLVDGRDMIIIRMPKDFPPFPQKLKFREPQREERICLVTTNFQTKSMSSMVSDTSCTFPSGDGIFWKHWIQTKDGQCGSPLVSTRDGFIVGIHSAMNFTNTNNYFTSVPKNFMELLTNQEAQQWVSGWRLNADSVLWGGHKVFMVKPEEPFQPVKEATQL [S171M]	0.0633	0.0614	0.0544		0.0744		0.0537	0.0624				0.0616	0.0639	0.0655	0.0476	0.0831	0.0647	0.0601	0.0585
MGESLFKGPRDYNPISSSICHLTNESDGHTTSLYGIGFGPFIITNKHLFRRNNGTLVVQSLHGVFKVKDTTTLQQHLVDGRDMIIIRMPKDFPPFPQKLKFREPQREERICLVTTNFQTKSMSSMVSDTSCTFPSGDGIFWKHWIQTKDGQCGSKLVSTRDGFIVGIHSASNFTNTNNYFTSVPKNFMELLTNQEAQQWVSGWRLNADSVLWGGHKVFMVKPEEPFQPVKEATQL [P155K]	0.0461	0.0573	0.0593	0.0538		0.0576	0.0517	0.0484	0.0533	0.0605	0.0681	0.0466		0.0593	0.046		0.0441		0.0564
MGESLFKGPRDYNPISSSICHLTNESDGHTTSLYGSGFGPFIITNKHLFRRNNGTLVVQSLHGVFKVKDTTTLQQHLVDGRDMIIIRMPKDFPPFPQKLKFREPQREERICLVTTNFQTKSMSSMVSDTSCTFPSGDGIFWKHWIQTKDGQCGSPLVSTRDGFIVGIHSASNFTNTNNYFTSVPKNFMELLTNQEAQQWVSGWRLNADSVLWGGHKVFMVKPEEPFQPVKEATQL [I36S]	0.0699	0.0686	0.0731	0.0726		0.0599	0.0546	0.0588	0.0674	0.0756		0.0868	0.0748	0.0775	0.0788	0.0658	0.0696	0.0674	0.084
MGESLFKGPRDYNPISSSICHLTNESDGHTTSLYGIGFGPFIITNKHLFRRNNGTLVVQSLHGVFKVKDTTTLQQHLVDGRDMIIIRMPKDFPPFPQKLKFREPQREERICLVTTNFQTKSMSSMVSDTSCTFPSGDGIFWKHWIQTKDGQCGSPLVSTRDGFIVGIHSASNFTNTNNYFTSVPKNFMEMLTNQEAQQWVSGWRLNADSVLWGGHKVFMVKPEEPFQPVKEATQL [L190M]	0.122	0.107	0.134	0.0727			0.107			0.0892		0.118	0.101	0.096					
MGESLFKGPRDYNPISSSICHLTNESDGHTTSLYGIGFGPFIITNKHLFRRNNGTLVVQSLHGVFKVKDTTTLQQHLVDGRDMIIIRMPKDFPPFPQKLKFREPQREERICLVTTNFQTKSMSSMVSDTSCTFPSGDGIFWKHWIQTKDGQCGSPLVSTRDGFIVGIHSASNFTNTNNYFTSVPKNFMELLTNQEAQQWVSGWRLNADSVLWGGHKVFMVKDEEPFQPVKEATQL [P222D]	0.136	0.131	0.157				0.0974	0.112	0.0968	0.109	0.117	0.122	0.0968	0.105	0.108				0.125
MGESLFKGPRDYNPISSSICHLTNESDGHTTSLYGIGFGPFIITNKHLFRRNNGTLVVQSLHGVFKVKDTTTLQQHLVDGRDMIIIRMPKDFPPFPQKLKFREPQREERICLVTTNFQTKSMSSMVSDTSCTFPSGDGIFWKHWIQTKDGQCGSPLVSTRDGFIVGIHSASNFTNTNNYFTSHPKNFMELLTNQEAQQWVSGWRLNADSVLWGGHKVFMVKPEEPFQPVKEATQL [V183H]	0.0605	0.0539	0.0608	0.0474	0.0635	0.0705	0.0658	0.0463	0.06			0.0504	0.0544	0.0658		0.0581	0.0649		

Reference: the supplement of paper PMC12217912
